Experimental findings from publication PMC10405097 (JID Innovations, 2023) are described below.

The assay addresses T1, extracellular domain (aa 29–331) of IL-13Rα2, C-terminal biotinylated Avi-tag (UniProt Q14627 29-331, biotin on the Avi-tag (BirA)).
T1 sequence: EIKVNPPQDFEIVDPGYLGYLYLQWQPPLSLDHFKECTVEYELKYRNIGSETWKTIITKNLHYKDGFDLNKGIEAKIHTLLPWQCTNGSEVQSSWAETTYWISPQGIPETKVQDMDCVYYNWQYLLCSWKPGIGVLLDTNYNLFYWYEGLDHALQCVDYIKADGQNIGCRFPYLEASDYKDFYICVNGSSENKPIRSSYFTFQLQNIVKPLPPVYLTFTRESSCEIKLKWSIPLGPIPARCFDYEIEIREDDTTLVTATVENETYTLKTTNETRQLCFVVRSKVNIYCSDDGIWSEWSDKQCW
Briefly: SPR.

B1: IL-13 ([…]), C-terminally Avi-His-tagged, nonbiotinylated (ligand)
chain: not shown
modifications: fully glycosylated
In the case of B1, the dissociation constant (Kd) (as a rule, the equilibrium constant for the complex coming apart) is 0.038 to 0.148 pM.
